Among all 310,000 compounds or so, about 2,200 (0.71%) showed an effect of 50% or more. Effects have a minus sign here. This is one part of the list.
What follows are molecules tested against human ether-à-go-go-related gene (hERG) potassium channel (human, UniProt Q12809) (assay: primary screen, population patch clamp on CHO cells stably expressing hERG).
Sequence of human ether-à-go-go-related gene (hERG) potassium channel (Q12809 whole entry, looked up): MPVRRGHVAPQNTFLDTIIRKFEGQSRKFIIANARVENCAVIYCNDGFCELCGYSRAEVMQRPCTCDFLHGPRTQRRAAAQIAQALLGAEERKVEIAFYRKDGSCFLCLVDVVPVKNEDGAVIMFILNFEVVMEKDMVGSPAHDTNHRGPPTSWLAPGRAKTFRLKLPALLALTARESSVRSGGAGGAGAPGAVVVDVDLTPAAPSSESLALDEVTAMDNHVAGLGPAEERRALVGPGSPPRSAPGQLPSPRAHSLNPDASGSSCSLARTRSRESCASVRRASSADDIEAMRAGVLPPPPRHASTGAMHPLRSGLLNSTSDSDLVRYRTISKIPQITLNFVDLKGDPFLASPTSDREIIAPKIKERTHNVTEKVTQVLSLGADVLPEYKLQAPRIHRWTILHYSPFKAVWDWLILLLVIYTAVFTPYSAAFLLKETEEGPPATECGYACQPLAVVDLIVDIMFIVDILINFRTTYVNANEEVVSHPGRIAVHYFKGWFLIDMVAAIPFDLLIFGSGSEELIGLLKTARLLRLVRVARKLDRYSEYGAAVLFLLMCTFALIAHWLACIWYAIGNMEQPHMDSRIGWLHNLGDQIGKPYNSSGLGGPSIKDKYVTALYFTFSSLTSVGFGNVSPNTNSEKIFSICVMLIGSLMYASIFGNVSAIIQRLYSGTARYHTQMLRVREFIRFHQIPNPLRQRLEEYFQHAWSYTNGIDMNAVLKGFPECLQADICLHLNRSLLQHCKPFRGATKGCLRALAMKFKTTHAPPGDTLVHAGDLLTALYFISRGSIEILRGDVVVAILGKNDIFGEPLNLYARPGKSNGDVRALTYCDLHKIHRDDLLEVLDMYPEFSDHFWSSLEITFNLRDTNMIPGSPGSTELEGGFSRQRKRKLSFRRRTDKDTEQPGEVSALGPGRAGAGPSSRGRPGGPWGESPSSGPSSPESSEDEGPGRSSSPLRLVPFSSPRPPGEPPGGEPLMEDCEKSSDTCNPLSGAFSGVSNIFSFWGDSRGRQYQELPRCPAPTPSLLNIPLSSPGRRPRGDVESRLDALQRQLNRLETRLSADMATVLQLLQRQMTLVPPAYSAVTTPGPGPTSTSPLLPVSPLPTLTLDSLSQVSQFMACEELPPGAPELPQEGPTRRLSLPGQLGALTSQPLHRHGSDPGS

Compound	hERG current change (%, negative = inhibition) at 1uM [%]
Cc1ccc(NC(=O)/C=C/c2ccc3c(c2)OCO3)cc1S(=O)(=O)N1CCOCC1	5.88
Cc1cc(C)n(S(=O)(=O)c2ccc3oc(=O)ccc3c2)n1	8.16
Cc1cc(C)nc(NC(=O)Nc2ccc(F)cc2F)n1	13.4
CCc1c(C)nc2ncnn2c1N1CCN(S(=O)(=O)c2ccc(OC)cc2)CC1	-0.7
Cn1c(=O)c2c(=O)cc(NNC(=O)CC#N)[nH]c2n(C)c1=O	10.8
CC1=CC(C)C2(COC(=O)Nc3ccccc3)COC(C)C1C2C (centres unmarked)	9.9
O=C(CCC(=O)Nc1ccc(Br)cc1)N/N=C/c1ccc(F)cc1	4.49
Cc1ccc(C(C)C)c(OCCN)c1.Cl	15.1
COc1cccc(C(=O)CC(=O)C(=O)Nc2ccc([N+](=O)[O-])cc2C)c1	12.7
COc1ccccc1N1CCN(Cc2ccc(OC)c3ccccc23)CC1	4.28
Cc1cccc(N=C2NN=C(c3ccc4c(c3)OCCO4)CS2)c1	-1.6
CCOC(=O)c1c(C)[nH]c(C(=O)CSc2nnc(-c3ccncc3)n2CC)c1C	4.02
CC(=O)Nc1cc(-c2ccc(F)cc2)[nH]n1	12.2
COCCNC(=O)CSc1nc2ccccc2c(=O)n1CCC(=O)NCCc1ccc(OC)c(OC)c1	10.4
CC(=O)Nc1ccc(NC2(C)C(=O)c3ccccc3C2=O)cc1	6.75
Nc1nc(C23CC4CC(CC(C4)C2)C3)[nH]c(=O)n1	17
Cc1cccc2cc(C(c3nnnn3C(C)(C)C)N(Cc3ccco3)CC3CCCO3)c(=O)[nH]c12 (centres unmarked)	-5.57
COc1ccc(NC(=O)CSc2nnc(Cn3c(=O)sc4ccccc43)n2C)c(OC)c1	-2.58
COc1ccc(CNC(=O)CN2CCN(c3cccc(C)c3C)CC2)cc1	7.33
CCC(=O)N(CC)c1nc(-c2cc(OC)ccc2OC)cs1	12.9
NNC(=O)COc1ccc(-c2n[nH]c(C(F)(F)F)c2-c2ccc(Br)cc2)c(O)c1	11.8
Cc1cc(OCC(=O)NCc2nc(-c3ccccc3)no2)c(C)cc1Br	11.9
NC(=O)CC(NC(=O)Cc1ccc(Cl)cc1)c1ccc(NCCc2ccccc2F)c([N+](=O)[O-])c1 (centres unmarked)	2.88

Compound	hERG current change (%, negative = inhibition) at 1uM [%]
c1ccc(OCc2nnc3sc(C4COc5ccccc5O4)nn23)cc1 (centres unmarked)	4.75
c1ccc(OCc2nn3c(C4CCCCC4)nnc3s2)cc1	-10.7
CC(C)Oc1cccc(C(=O)N2CCCC2)c1	9.63
CCOC(=O)c1ccc(CSc2nncn2N)o1	16
O=C(Nc1ccccc1N1CCOCC1)c1ccc(N2CCCC2=O)cc1	7.28
CSc1nc2sc3c(c2c(=O)[nH]1)CCCC3	14.3
Cc1ccc(N2CCCCn3c2nc2c3c(=O)[nH]c(=O)n2C)cc1	5.04
Cc1nc2c(C#N)c(-c3ccc(Cl)cc3)ccn2n1	14.8
CCN(CC)Cc1c(C(=O)N2CCc3ccccc3C2)nc2ccc(Cl)cn12	-8.42
CSc1ncc(C(=O)Nc2ccccc2C)c(C)n1	11.4
O=C([O-])c1ccccc1-[n+]1c(-c2ccccc2)cc(-c2ccccc2)cc1-c1ccccc1	6.47
Cc1ccc[n+](CC(=O)Nc2c(Cl)cc(Cl)cc2Cl)c1.[Cl-]	10.4
CC(C)CCN1CCN(Cc2cc3ccccc3[nH]2)CC1CCO (centres unmarked)	-2.38
O=C(NCc1ccccc1Cl)c1ccc[nH]1	-8.17
Cc1ccc2nc(C)n(-c3ccc(F)cc3)c(=O)c2c1	19
C[C@@H]1CCC[C@]2(O[C@H](CCO)C[C@H](O)[C@H]2O)O1	9.07
CCOC(=O)CCc1c(C)n[nH]c1C	6.58
CC(=O)NC1=NN(C(C)=O)C(c2ccc(C)cc2)S1 (centres unmarked)	23.1
COc1ccc(Br)cc1S(=O)(=O)Nc1ncn[nH]1	12.4
COc1cc(S(=O)(=O)N2CCC(C(N)=O)CC2)c(C)cc1C	15
Cc1ccc(CN2C3CCCC2CC(NC(=S)NCc2ccccc2)C3)cc1 (centres unmarked)	-54.4
COc1ccc(CCNc2nc(-c3sc(C)nc3C)cs2)cc1OC.O=C(O)C(=O)O	-4.56
Cc1onc(-c2ccccc2Cl)c1C(=O)NC(=S)Nc1ccc(C(C)C)cc1	15.3

Compound	hERG current change (%, negative = inhibition) at 1uM [%]
CC(C)Cc1nnc(NC(=O)c2cc([N+](=O)[O-])ccc2N2CCOCC2)s1	-8.05
COc1ccc(NS(=O)(=O)c2cccc(C(=O)NNC(=O)CNC(=O)c3ccc(C)cc3)c2)cc1	10.4
OC(c1ccccc1)C(O)c1ccccc1 (centres unmarked)	17.2
O=C(c1ccccc1Cc1ccccc1)N1CCN(S(=O)(=O)c2ccccc2[N+](=O)[O-])CC1	3.17
CC(C)Oc1ccc(C2CC(=O)N(c3ccc(C(=O)O)cc3)C2=O)cc1 (centres unmarked)	13.5
CCOC(=O)C1(Cc2ccc(Cl)cc2)CCN(C2CCC2)CC1	-18.9
CCOCCCn1c(SC(C(=O)Nc2cc(C)ccc2C)c2ccccc2)nnc1-c1ccc(Cl)cc1 (centres unmarked)	13.5
COc1cccc(NC(=O)CSc2nc3c([nH]c4ccccc43)c(=O)n2C)c1	13.5
CCOC(=O)C1CCN(C(=O)CSc2n[nH]c(=O)[nH]c2=O)CC1	15.9
CS(=O)(=O)N(CC(=O)N1CCCC1)Cc1ccc(Cl)cc1	0.0292
COc1ccc(C(=O)CC(=O)c2ccccc2O)cc1	16.4
Cc1nn(C(C)(C)C)c(OC(=O)c2ccc3c(c2)OCO3)c1S(=O)(=O)c1ccccc1	8.74
CCc1ccc(C(=O)N2CCN(c3ccc(NC(=O)c4cccnc4)cc3)CC2)cc1	-26.9
CCCCNc1nc(Nc2ccc(C)c(Cl)c2)c2cnn(C)c2n1	9.96
CCCCCCC/C(C)=N/NC(=O)CC(=O)NCCc1ccccc1	7.45
CCCc1cc(C(=O)N(C)CC(=O)Nc2ccc(OCC)c(OCC)c2)sc1C	-2.22
CCCS(=O)(=O)c1nc(S(=O)(=O)c2ccc(C)cc2)c(N2CCC(C)CC2)s1	15.5
Cc1ccc(/C([O-])=C(/C(=S)NCc2ccccc2)[n+]2ccccc2)cc1[N+](=O)[O-]	4.1
CC(=O)C1=C(C)OC(N)=C(C#N)C1c1cc2cc(C)c(C)cc2nc1Cl (centres unmarked)	5.85
O=S(=O)(NCC1CCCO1)c1ccc(-c2ccc(Cl)cc2)cc1 (centres unmarked)	12.8
C#CCOc1ccc2c(c1)c(C(C)=O)c(C)n2Cc1ccccc1	8.63
COc1ccc(N/C=C/C(=O)c2ccc(Cl)cc2)cc1	1.77
CCc1cccc(C)c1NC(=O)c1cc(=O)[nH]c2ccc(S(=O)(=O)N3CCOCC3)cc12	6.57

Compound	hERG current change (%, negative = inhibition) at 1uM [%]
CCN(CC)CCNC(=O)c1ccc(Sc2ccc(Cl)cc2)c(NC(C)=O)c1	-10.8
CCn1c(CNc2ccccc2Cl)nnc1SCC(=O)NCc1ccccc1	-0.207
CC(=O)C1=C(c2ccccc2)OC(N)=C(C#N)C1c1ccccc1F (centres unmarked)	5.71
Cc1noc(C)c1COc1cccc(C(=O)Nc2ccccc2N2CCOCC2)c1	1.23
O=C(COC(=O)c1cnccn1)Nc1ncc(Cl)cc1Cl	8.51
C=C1CCN(C(CC(C)C)C(=O)OC)S(=O)(=O)c2ccccc21 (centres unmarked)	9.71
CCc1ccc(C(=O)N2CCCC2)s1	20.8
O=S(=O)(Nc1cccnc1)c1cccs1	18.1
CC(C)COc1ccc(C(=O)Nc2ccccc2[N+](=O)[O-])cc1	16.2
COc1cc(S(=O)(=O)N(Cc2ccccn2)Cc2ccco2)ccc1-n1cnnn1	-0.747
CCOC(=O)C1C(=O)OC(C)(C)C1C(C)C(=O)c1ccc(OC)cc1 (centres unmarked)	4.21
Cc1oc(/C=N/NC(=O)CN(c2ccccc2Cl)S(C)(=O)=O)cc1Br	5.86
C(/CCc1ccccc1)=N\Nc1nc2ccccc2[nH]1	2.85
Cc1ccc(OCC(=O)NCCCNC(=O)c2ccccn2)cc1	4.73
CC1CCCCN1C(=O)c1ccc(N2CC3CC(C2)c2cccc(=O)n2C3)c([N+](=O)[O-])c1 (centres unmarked)	1.91
CCOC(=O)C1CCN(c2ncnc3c2nnn3Cc2ccccc2Cl)CC1	7.99
CCCN1CCC(CCOc2ccccc2)(C(=O)OCC)CC1	-2.96
CCOC(=O)Cn1c(C)cc(=O)c2cccc(C)c21	3.9
O=C(NC(=S)N1CCN(c2nc(-c3ccccc3)cs2)CC1)c1cccnc1	13.7
O=C1CS/C(=N/N=C/c2ccccc2OS(=O)(=O)c2ccccc2)N1	11.7

From PMC4336329 (PLoS ONE, 2015)
